From the supplement of paper PMC8728848
This is one part of the list.

Legend:
Assay in all cases: glycan array binding signal (z-score within array); higher = stronger binding
Conditions in all cases: glycan notation: IUPAC condensed, linker removed
[1] = target: Fuc(a1-3)[GalNAc(b1-4)]GlcNAc
Summary of the method: (§1)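 The binding signal is a Z-score computed within each array and averaged over linkers. Arrays of the same protein sequence at different concentrations or buffers were also averaged together. Data originate from 3228 arrays in the Consortium for Functional Glycomics database, kept only where the protein sequence was available.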

Fuc(a1-4)GlcNAc = target: Fuc(a1-4)GlcNAc
Summary of the method: as §1

Fuc(b1-3)GlcNAc = target: Fuc(b1-3)GlcNAc
Summary of the method: as §1

Gal(a1-2)Gal = target: Gal(a1-2)Gal
Summary of the method: as §1

Gal(a1-3)Gal = target: Gal(a1-3)Gal
Summary of the method: as §1

Gal(a1-3)Gal(b1-3)GlcNAc = target: Gal(a1-3)Gal(b1-3)GlcNAc
Summary of the method: as §1

Gal(a1-3)Gal(b1-4)Glc = target: Gal(a1-3)Gal(b1-4)Glc
Summary of the method: as §1

Gal(a1-3)Gal(b1-4)GlcNAc = target: Gal(a1-3)Gal(b1-4)GlcNAc
Summary of the method: as §1

[2] = target: Gal(a1-3)Gal(b1-4)[Fuc(a1-3)]GlcNAc
Summary of the method: as §1

Gal(a1-3)GalNAc = target: Gal(a1-3)GalNAc
Summary of the method: as §1

[3] = target: Gal(a1-3)[Gal(a1-4)]Gal(b1-4)GlcNAc
Summary of the method: as §1

Gal(a1-4)Gal(b1-4)Glc = target: Gal(a1-4)Gal(b1-4)Glc
Summary of the method: as §1

Gal(a1-4)Gal(b1-4)GlcNAc = target: Gal(a1-4)Gal(b1-4)GlcNAc
Summary of the method: as §1

Gal(a1-4)GlcNAc = target: Gal(a1-4)GlcNAc
Summary of the method: as §1

Gal(a1-6)Glc = target: Gal(a1-6)Glc
Summary of the method: as §1

Gal(b1-2)Gal = target: Gal(b1-2)Gal
Summary of the method: as §1

Gal(b1-3)Gal = target: Gal(b1-3)Gal
Summary of the method: as §1

Gal(b1-3)Gal(b1-4)GlcNAc = target: Gal(b1-3)Gal(b1-4)GlcNAc
Summary of the method: as §1

Gal(b1-3)GalNAc = target: Gal(b1-3)GalNAc
Summary of the method: as §1

[4] = target: Gal(b1-3)GalNAc(b1-3)Gal(a1-4)Gal(b1-4)Glc
Summary of the method: as §1

[5] = target: Gal(b1-3)GalNAc(b1-4)Gal(b1-4)Glc
Summary of the method: as §1

[6] = target: Gal(b1-3)GalNAc(b1-4)[Neu5Ac(a2-3)]Gal(b1-4)Glc
Summary of the method: as §1

Gal(b1-3)GlcNAc = target: Gal(b1-3)GlcNAc
Summary of the method: as §1

[7] = target: Gal(b1-3)GlcNAc(b1-2)Man(a1-3)[Gal(b1-3)GlcNAc(b1-2)Man(a1-6)]Man(b1-4)GlcNAc(b1-4)GlcNAc
Summary of the method: as §1

[8] = target: Gal(b1-3)GlcNAc(b1-3)Gal(b1-3)GlcNAc
Summary of the method: as §1

[9] = target: Gal(b1-3)GlcNAc(b1-3)Gal(b1-4)Glc
Summary of the method: as §1

[10] = target: Gal(b1-3)GlcNAc(b1-3)Gal(b1-4)GlcNAc
Summary of the method: as §1

[11] = target: Gal(b1-3)[Fuc(a1-4)]GlcNAc
Summary of the method: as §1

[12] = target: Gal(b1-3)[Fuc(a1-4)]GlcNAc(b1-3)Gal(b1-3)[Fuc(a1-4)]GlcNAc
Summary of the method: as §1

[13] = target: Gal(b1-3)[Fuc(a1-4)]GlcNAc(b1-3)Gal(b1-4)GlcNAc
Summary of the method: as §1

[14] = target: Gal(b1-3)[Fuc(a1-4)]GlcNAc(b1-3)Gal(b1-4)[Fuc(a1-3)]GlcNAc
Summary of the method: as §1

[15] = target: Gal(b1-3)[GlcNAc(b1-6)]GalNAc
Summary of the method: as §1

[16] = target: Gal(b1-3)[Neu5Ac(a2-6)]GalNAc
Summary of the method: as §1

[17] = target: Gal(b1-3)[Neu5Ac(a2-6)]GlcNAc(b1-6)Gal(b1-4)Glc
Summary of the method: as §1

[18] = target: Gal(b1-3)[Neu5Ac(b2-6)]GalNAc
Summary of the method: as §1

[19] = target: Gal(b1-4)GalNAc(a1-3)[Fuc(a1-2)]Gal(b1-4)GlcNAc
Summary of the method: as §1

[20] = target: Gal(b1-4)GalNAc(b1-3)[Fuc(a1-2)]Gal(b1-4)GlcNAc
Summary of the method: as §1

Gal(b1-4)Glc = target: Gal(b1-4)Glc
Summary of the method: as §1

Gal(b1-4)Glc6S = target: Gal(b1-4)Glc6S
Summary of the method: as §1

Gal(b1-4)GlcNAc = target: Gal(b1-4)GlcNAc
Summary of the method: as §1

[21] = target: Gal(b1-4)GlcNAc(a1-6)Gal(b1-4)GlcNAc
Summary of the method: as §1

[22] = target: Gal(b1-4)GlcNAc(b1-2)Man(a1-3)[Gal(b1-4)GlcNAc(b1-2)Man(a1-6)]Man(b1-4)GlcNAc(b1-4)GlcNAc
Summary of the method: as §1

[23] = target: Gal(b1-4)GlcNAc(b1-3)Gal(b1-3)GlcNAc
Summary of the method: as §1

[24] = target: Gal(b1-4)GlcNAc(b1-3)Gal(b1-4)Glc
Summary of the method: as §1

[25] = target: Gal(b1-4)GlcNAc(b1-3)Gal(b1-4)GlcNAc
Summary of the method: as §1

B1: BDCA2 ex-domain (Homo sapiens) (protein)
chain: MASHHHHHHIEGRGLNDIFEAQKIEWHESLVPRGSCPTPWTSFQSSCYFISTGMQSWTKSQKNCSVMGADLVVINTREEQDFIIQNLKRNSSYFLGLSDPGGRRHWQWVDQTPYNENVTFWHSGEPNNLDERCAIINFRSSEEWGWNDIHCHVPQKSICKMKKIY
glycan array binding signal (z-score) [1]: -0.371
glycan array binding signal (z-score) (Fuc(a1-4)GlcNAc): -0.259
glycan array binding signal (z-score) (Fuc(b1-3)GlcNAc): -0.339
glycan array binding signal (z-score) (Gal(a1-2)Gal): -0.233
glycan array binding signal (z-score) (Gal(a1-3)Gal): -0.174
glycan array binding signal (z-score) (Gal(a1-3)Gal(b1-3)GlcNAc): -0.292
glycan array binding signal (z-score) (Gal(a1-3)Gal(b1-4)Glc): -0.084
glycan array binding signal (z-score) (Gal(a1-3)Gal(b1-4)GlcNAc): -0.415
glycan array binding signal (z-score) [2]: -0.261
glycan array binding signal (z-score) (Gal(a1-3)GalNAc): -0.143
glycan array binding signal (z-score) [3]: -0.042
glycan array binding signal (z-score) (Gal(a1-4)Gal(b1-4)Glc): 0.336
glycan array binding signal (z-score) (Gal(a1-4)Gal(b1-4)GlcNAc): 0.39
glycan array binding signal (z-score) (Gal(a1-4)GlcNAc): 0.002
glycan array binding signal (z-score) (Gal(a1-6)Glc): -0.135
glycan array binding signal (z-score) (Gal(b1-2)Gal): 0.271
glycan array binding signal (z-score) (Gal(b1-3)Gal): -0.235
glycan array binding signal (z-score) (Gal(b1-3)Gal(b1-4)GlcNAc): -0.245
glycan array binding signal (z-score) (Gal(b1-3)GalNAc): -0.157
glycan array binding signal (z-score) [4]: -0.375
glycan array binding signal (z-score) [5]: -0.346
glycan array binding signal (z-score) [6]: -0.468
glycan array binding signal (z-score) (Gal(b1-3)GlcNAc): -0.382
glycan array binding signal (z-score) [7]: 8.6
glycan array binding signal (z-score) [8]: -0.221
glycan array binding signal (z-score) [9]: -0.257
glycan array binding signal (z-score) [10]: -0.239
glycan array binding signal (z-score) [11]: -0.249
glycan array binding signal (z-score) [12]: -0.373
glycan array binding signal (z-score) [13]: -0.319
glycan array binding signal (z-score) [14]: -0.194
glycan array binding signal (z-score) [15]: -0.038
glycan array binding signal (z-score) [16]: -0.183
glycan array binding signal (z-score) [17]: 0.856
glycan array binding signal (z-score) [18]: 0.01
glycan array binding signal (z-score) [19]: -0.178
glycan array binding signal (z-score) [20]: -0.375
glycan array binding signal (z-score) (Gal(b1-4)Glc): 0.453
glycan array binding signal (z-score) (Gal(b1-4)Glc6S): -0.197
glycan array binding signal (z-score) (Gal(b1-4)GlcNAc): -0.104
glycan array binding signal (z-score) [21]: -0.267
glycan array binding signal (z-score) [22]: 13.2
glycan array binding signal (z-score) [23]: -0.024
glycan array binding signal (z-score) [24]: -0.141
glycan array binding signal (z-score) [25]: 0.455
